# The campaign covered roughly 3,200 compounds. About 110 (3.4%) showed an effect of 50% or more. The list shows a part of the results.
# Test system: T1, V. cholerae SAD30
# T1 construct: SAD30
# Design: species or system S. aureus MSSA476 (TSB) or V. cholerae SAD30 (LB); 384-well bacterial growth screen at 25 uM, OD600 relative to DMSO control
# Details: relative growth, OD600, LB; 25 µM; inhibitor
row,Compound,% of control remaining [%]
1,"COc1ccc2cc(C=C(C#N)C(=O)Nc3nccs3)ccc2c1 [9-E08, 2-cyano-3-(6-methoxynaphthalen-2-yl)-N-(1,3-thiazol-2-yl)prop-2-enamide]",74.983
2,"CN(C)c1nc(N2CCOCC2)ncc1NC(=O)CCl [5-M22, 2-chloro-N-[4-(dimethylamino)-2-(morpholin-4-yl)pyrimidin-5-yl]acetamide]",105.916
3,"C=CC(=O)NCC1CCC2(CCCC2)O1 (centres unmarked) [1-A06, N-({1-oxaspiro[4.4]nonan-2-yl}methyl)prop-2-enamide]",91.9283
4,"C=CC(=O)NCc1ncccc1-n1cccn1 [2-N19, N-{[3-(1H-pyrazol-1-yl)pyridin-2-yl]methyl}prop-2-enamide]",92.8206
5,"C=CC(=O)N(CCO)c1ccc(C(=O)O)cc1 [1-M10, 4-[N-(2-hydroxyethyl)prop-2-enamido]benzoic acid]",88.6398
6,"CC(Cl)C(=O)N1CCN(C(C)C)c2ccccc2C1 (centres unmarked) [7-O07, 2-chloro-1-[1-(propan-2-yl)-2,3,4,5-tetrahydro-1H-1,4-benzodiazepin-4-yl]propan-1-one]",66.4794
7,"C=CC(=O)N1CCCC(NS(=O)(=O)c2cccc(F)c2)C1 (centres unmarked) [3-G15, 3-fluoro-N-[1-(prop-2-enoyl)piperidin-3-yl]benzene-1-sulfonamide]",78.504
8,"CC(Cl)C(=O)Nc1ccc([N+](=O)[O-])cc1C(F)(F)F (centres unmarked) [6-D06, 2-chloro-N-[4-nitro-2-(trifluoromethyl)phenyl]propanamide]",84.1786
9,"CC(Cl)C(=O)N1CCCc2c1ccnc2N(C)C (centres unmarked) [6-D14, 2-chloro-1-[5-(dimethylamino)-1,2,3,4-tetrahydro-1,6-naphthyridin-1-yl]propan-1-one]",87.5154
10,"C=CC(=O)N1CCC(Cc2noc(C)n2)CC1 [2-G22, 1-{4-[(5-methyl-1,2,4-oxadiazol-3-yl)methyl]piperidin-1-yl}prop-2-en-1-one]",114.127
11,"CCc1nsc(N2CCN(C(=O)C(C#N)=Cc3ccco3)CC2)n1 [9-K05, 2-[4-(3-ethyl-1,2,4-thiadiazol-5-yl)piperazine-1-carbonyl]-3-(furan-2-yl)prop-2-enenitrile]",91.9782
12,"C=CC(=O)NC(=O)NCc1ccccc1 [1-I04, 1-benzyl-3-(prop-2-enoyl)urea]",96.861
13,"Cc1cc(C(C)(C)C)cc(C)c1CCNC(=O)CCl [4-A16, N-[2-(4-tert-butyl-2,6-dimethylphenyl)ethyl]-2-chloroacetamide]",101.79
14,"Cc1cc(C)c(NC(=O)C(C#N)=Cc2cccnc2)c(C)c1 [8-B17, 2-cyano-3-(pyridin-3-yl)-N-(2,4,6-trimethylphenyl)prop-2-enamide]",75.119
15,"COc1cc(C)c(C=C(C#N)C(=O)Nc2ccc(C)cc2)cc1C(C)C [9-C04, 2-cyano-3-[4-methoxy-2-methyl-5-(propan-2-yl)phenyl]-N-(4-methylphenyl)prop-2-enamide]",94.6975
16,"CCOc1cc(C=C(C#N)C(=O)N2CCCC2)cc(Cl)c1O [8-M06, 3-(3-chloro-5-ethoxy-4-hydroxyphenyl)-2-(pyrrolidine-1-carbonyl)prop-2-enenitrile]",72.8076
17,"C=CC(=O)N1CCN(S(=O)(=O)CC)CC1 [3-D20, 1-[4-(ethanesulfonyl)piperazin-1-yl]prop-2-en-1-one]",105.852
18,"N#CC(=Cc1ccc(OC(F)F)cc1)C(=O)N1CCCCC1 [8-J20, 3-[4-(difluoromethoxy)phenyl]-2-(piperidine-1-carbonyl)prop-2-enenitrile]",68.5928
19,"C=CC(=O)N1CCC(C(=O)Nc2nc3cc(F)c(C)cc3s2)CC1 [2-K15, N-(5-fluoro-6-methyl-1,3-benzothiazol-2-yl)-1-(prop-2-enoyl)piperidine-4-carboxamide]",76.6091
20,"COc1ccccc1NC(=O)C(C#N)=Cc1sccc1C [9-P19, 2-cyano-N-(2-methoxyphenyl)-3-(3-methylthiophen-2-yl)prop-2-enamide]",85.724
21,"CC(C)NC(=O)C(C#N)=Cc1c(Cl)nc2ccccn12 [9-A11, 3-{2-chloroimidazo[1,2-a]pyridin-3-yl}-2-cyano-N-(propan-2-yl)prop-2-enamide]",91.8423
22,"O=C(CCl)NCCc1ncc(F)cn1 [6-E19, 2-chloro-N-[2-(5-fluoropyrimidin-2-yl)ethyl]acetamide]",92.5206

row,Compound,% of control remaining [%]
1,"CC1CN(c2cccc(CN(C)C(=O)C(C)Cl)c2)S(=O)(=O)C1 (centres unmarked) [6-L18, 2-chloro-N-methyl-N-{[3-(4-methyl-1,1-dioxo-1lambda6,2-thiazolidin-2-yl)phenyl]methyl}propanamide]",87.0604
2,"NC(=O)CCN(C(=O)CCl)c1ccc(F)cc1 [5-C03, 3-[2-chloro-N-(4-fluorophenyl)acetamido]propanamide]",115.499
3,"Cc1ccc(C)c(C=C(C#N)C(=O)Nc2nccs2)c1 [9-N13, 2-cyano-3-(2,5-dimethylphenyl)-N-(1,3-thiazol-2-yl)prop-2-enamide]",98.2325
4,"O=C(NC1CC1)C1(C(=O)N2CCSSCC2)CCC1 [10-B21, N-cyclopropyl-1-(1,2,5-dithiazepane-5-carbonyl)cyclobutane-1-carboxamide]",104.89
5,"C=CC(=O)NCc1nnc2n1CCCCC2 [3-N07, N-({5H,6H,7H,8H,9H-[1,2,4]triazolo[4,3-a]azepin-3-yl}methyl)prop-2-enamide]",97.7357
6,"O=C(CCl)c1ccc(Cl)c(Cl)c1 [10-L16, 2-chloro-1-(3,4-dichlorophenyl)ethan-1-one]",0
7,"COc1ccc(C=C(C#N)C(=O)NC(C)c2ccccc2)cc1O (centres unmarked) [8-J18, 2-cyano-3-(3-hydroxy-4-methoxyphenyl)-N-(1-phenylethyl)prop-2-enamide]",69.6805
8,"CC(Cl)C(=O)N1N=C(c2ccc(Cl)cc2)CC1c1ccco1 (centres unmarked) [5-H18, 2-chloro-1-[3-(4-chlorophenyl)-5-(furan-2-yl)-4,5-dihydro-1H-pyrazol-1-yl]propan-1-one]",49.4273
9,"CSc1ccccc1NC(=O)CCl [4-E11, 2-chloro-N-[2-(methylsulfanyl)phenyl]acetamide]",92.3011
10,"COc1cc(C=C(C#N)C(=O)NC2CC2)cc(OC)c1O [9-O19, 2-cyano-N-cyclopropyl-3-(4-hydroxy-3,5-dimethoxyphenyl)prop-2-enamide]",92.2502
11,"CC(=O)N1CCC(NC(=O)C(C)Cl)c2ccc(F)cc2C1 (centres unmarked) [7-I16, N-(2-acetyl-8-fluoro-2,3,4,5-tetrahydro-1H-2-benzazepin-5-yl)-2-chloropropanamide]",81.8107
12,"O=CN1CCc2cc(C(=O)CCl)ccc21 [10-K20, 5-(2-chloroacetyl)-2,3-dihydro-1H-indole-1-carbaldehyde]",27.1186
13,"Cc1cc(C(=O)CCl)c(C)n1-c1ccc(Cl)cc1 [10-H18, 2-chloro-1-[1-(4-chlorophenyl)-2,5-dimethyl-1H-pyrrol-3-yl]ethan-1-one]",103.331
14,"O=C(CCl)N(CC1=CCCOC1)Cc1ccccc1 [7-J20, N-benzyl-2-chloro-N-[(5,6-dihydro-2H-pyran-3-yl)methyl]acetamide]",80.6212
15,"O=C(CCl)NCC(=O)N1CCC(Cc2ccccc2)CC1 [6-F04, N-[2-(4-benzylpiperidin-1-yl)-2-oxoethyl]-2-chloroacetamide]",93.4307
16,"C=CC(=O)N1CCC(C(=O)Nc2cccc(-c3n[nH]c(C)n3)c2)CC1 [2-J09, N-[3-(5-methyl-1H-1,2,4-triazol-3-yl)phenyl]-1-(prop-2-enoyl)piperidine-4-carboxamide]",93.5926
17,"Cc1cc(C)c(NC(=O)C(C#N)=Cc2ccc(C)o2)c(C)c1 [9-I17, 2-cyano-3-(5-methylfuran-2-yl)-N-(2,4,6-trimethylphenyl)prop-2-enamide]",87.7634
18,"O=C1C=CC(=O)N1CCCCO [10-K07, 1-(4-hydroxybutyl)-2,5-dihydro-1H-pyrrole-2,5-dione]",17.4557
19,"C=CC(=O)N(Cc1cn2ccccc2n1)C1CC1 [3-J21, N-cyclopropyl-N-({imidazo[1,2-a]pyridin-2-yl}methyl)prop-2-enamide]",90.3253
20,"CC(Cl)C(=O)NCC(C)c1nncn1C (centres unmarked) [7-A07, 2-chloro-N-[2-(4-methyl-4H-1,2,4-triazol-3-yl)propyl]propanamide]",92.7804
21,"Cc1ccsc1C=C(C#N)C(=O)Nc1c(Cl)cccc1Cl [8-D22, 2-cyano-N-(2,6-dichlorophenyl)-3-(3-methylthiophen-2-yl)prop-2-enamide]",74.1672
22,"C=CC(=O)NCCc1csc(-c2ccccc2)n1 [1-A13, N-[2-(2-phenyl-1,3-thiazol-4-yl)ethyl]prop-2-enamide]",78.6248
